Here are results for 91 compounds from paper PMC4336329 (PLoS ONE, 2015).

The campaign covered roughly 310,000 compounds. About 14,000 (4.5%) showed an effect of 50% or more. The effect is printed as a negative number. The list shows a part of the results.
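Further: peak tail current of the secondary pulse compared with the same well before compound.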

Chain of human ether-à-go-go-related gene (hERG) potassium channel (Q12809 whole entry, looked up): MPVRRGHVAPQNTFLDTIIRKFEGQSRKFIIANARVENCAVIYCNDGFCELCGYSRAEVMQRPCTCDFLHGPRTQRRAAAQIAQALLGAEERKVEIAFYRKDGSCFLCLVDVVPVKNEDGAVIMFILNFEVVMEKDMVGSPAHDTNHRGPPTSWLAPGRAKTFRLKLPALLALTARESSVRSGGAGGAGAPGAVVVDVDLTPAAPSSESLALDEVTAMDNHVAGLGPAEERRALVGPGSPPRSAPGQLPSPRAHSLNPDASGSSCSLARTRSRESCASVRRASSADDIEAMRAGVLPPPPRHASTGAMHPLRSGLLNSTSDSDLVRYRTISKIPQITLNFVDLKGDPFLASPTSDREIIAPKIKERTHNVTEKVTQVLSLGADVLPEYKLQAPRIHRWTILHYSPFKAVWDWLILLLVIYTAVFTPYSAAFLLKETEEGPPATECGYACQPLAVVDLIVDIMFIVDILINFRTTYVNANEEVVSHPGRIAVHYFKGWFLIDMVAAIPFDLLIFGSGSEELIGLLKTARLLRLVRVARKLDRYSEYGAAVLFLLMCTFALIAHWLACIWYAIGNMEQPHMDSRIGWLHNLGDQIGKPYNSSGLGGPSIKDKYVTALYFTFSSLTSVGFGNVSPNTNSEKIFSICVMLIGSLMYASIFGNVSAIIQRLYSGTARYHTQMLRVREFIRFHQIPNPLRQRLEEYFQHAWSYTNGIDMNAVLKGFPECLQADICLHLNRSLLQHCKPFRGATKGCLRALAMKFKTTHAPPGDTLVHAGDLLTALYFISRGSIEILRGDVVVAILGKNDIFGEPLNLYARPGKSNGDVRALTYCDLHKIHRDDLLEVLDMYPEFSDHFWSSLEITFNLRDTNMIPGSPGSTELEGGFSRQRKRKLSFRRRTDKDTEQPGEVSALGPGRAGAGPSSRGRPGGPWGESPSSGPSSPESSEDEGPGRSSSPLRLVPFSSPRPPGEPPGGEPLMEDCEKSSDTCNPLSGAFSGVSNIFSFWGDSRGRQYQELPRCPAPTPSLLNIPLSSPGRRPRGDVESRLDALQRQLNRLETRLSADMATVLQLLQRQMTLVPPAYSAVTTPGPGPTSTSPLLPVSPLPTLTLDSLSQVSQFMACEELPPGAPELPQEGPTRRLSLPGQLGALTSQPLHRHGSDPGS

This assay addresses human ether-à-go-go-related gene (hERG) potassium channel (human, UniProt Q12809). The assay can be described thus: primary screen, population patch clamp on CHO cells stably expressing hERG.
For the compound `CCN(CCCNC(=O)C1CCN(S(=O)(=O)CC)CC1)c1cccc(C)c1`, the “hERG current change (%, negative = inhibition) at 10uM” value is reported as -40.4%. In the case of `CCc1nnc(NS(=O)(=O)c2ccc(NC(=O)/C=C/c3ccc(F)cc3)cc2)s1` it was 8.28%; in that of `N#Cc1nc(-c2cccs2)oc1NCCc1ccccc1`, 3.08%. In the case of `CCN(CC)c1ccc(/C=N\N2CCN(Cc3ccc(C)cc3)CC2)cc1` it was -2.72%; in that of `COc1ccc(CNC(=O)COC(=O)CN2C(=O)C(C)Oc3ccc(C)cc32)cc1` (stereo not shown), 1.11%; in that of `COc1ccc(CN(CC(=O)NC2CCCCC2)C(=O)CCC(=O)Nc2nccs2)cc1`, 12.7%.

As for `Cc1ccc(CN2CC(=O)N3[C@H]4c5cc(Cl)ccc5OC[C@@H]4[C@H](c4ccccc4)[C@]3(C)C2=O)cc1`, the “hERG current change (%, negative = inhibition) at 10uM” value was 17.5%. Take `Cc1cccc(Cn2nc(C(C)(C)C)cc2C(=O)Nc2ccc(F)cc2)c1`: the “hERG current change (%, negative = inhibition) at 10uM” value is recorded as 14.8%. The same measure for `Cn1c(CNC(=O)CNS(=O)(=O)c2ccc(Br)cc2)cc(=O)n(C)c1=O`: 1.56%; for `Cc1cc(N2C(=O)C(=O)/C(=C(/O)c3ccccc3)C2c2cccc(Br)c2)no1` (stereo not shown): -3.13%; for `O/N=C/c1ccn(-c2ccc(Br)cc2)c1`: 30.1%. For `Cc1ccccc1NC(=O)CCOc1ccccc1`, the “hERG current change (%, negative = inhibition) at 10uM” value was 11.8%. Take `Nc1nnc(Cc2ccc(Cl)cc2Cl)s1`: the “hERG current change (%, negative = inhibition) at 10uM” value worked out at 8.94%.

With `CCCCOc1ccc(/C=c2\sc3ncnn3c2=O)cc1`, the “hERG current change (%, negative = inhibition) at 10uM” value was -8.12%. The same measure for `CCCSc1nsc(N)n1`: -0.479%; for `Cc1ccc(OCC(=O)N2CCc3ccccc3C2)cc1`: -3.37%.

For `CCn1c(SCC(=O)N/N=C/c2c[nH]c3ccccc23)nnc1-c1ccc(C)cc1`, the “hERG current change (%, negative = inhibition) at 10uM” value was 4.16%. The same measure for `Cn1c(CNC(=O)c2ccccc2F)nnc1SCC(=O)NCc1ccccc1`: 11.1%. Turning to `N#Cc1c(N)sc(=S)c2c1CCCCC2`, the “hERG current change (%, negative = inhibition) at 10uM” value was determined as 4.02%. On to `CN1C(=O)CC(Sc2ccccc2C(=O)O)C1=O` (stereo not shown), for which the “hERG current change (%, negative = inhibition) at 10uM” value was -20.7%. Regarding `Clc1cccc(N/N=C/c2ccc(N3CCOCC3)s2)c1`, the “hERG current change (%, negative = inhibition) at 10uM” value is on record as 8.85%. On to `Cc1ccc(-c2c(C)n([O-])c3c([n+]2=O)CCCC3)o1`, for which the “hERG current change (%, negative = inhibition) at 10uM” value turned out to be 14.1%.

`CCSc1nnc(NC(=O)Cn2cnc3c2c(=O)n(C)c(=O)n3C)s1`: the “hERG current change (%, negative = inhibition) at 10uM” value was 11.3%.

With `COc1ccc(OCCCC(=O)NNC(=O)CCN2CCN(c3ccccc3)CC2)cc1`, the “hERG current change (%, negative = inhibition) at 10uM” value is 7.89%. The same measure for `O=C(COc1cc(O)c2c(=O)c3ccccc3oc2c1)OCc1ccccc1`: 5.22%; for `COCCOC(=O)c1c(C)n(C)c2ccc(OC(=O)c3cccs3)cc12`: 23.8%.

For the compound `COCCN(CCOC)c1nc(-c2ccc([N+](=O)[O-])cc2)nc2ccccc12`, the “hERG current change (%, negative = inhibition) at 10uM” value was -34.3%. In the case of `OC(CN1CCN(c2ccccc2)CC1)c1ccc2c(c1)CCN2` (stereo not shown) it was -22.2%. In the case of `COc1ccc(CNC(=O)c2noc(C(C)C)c2[N+](=O)[O-])cc1` it was 3.4%. On to `C/C(=N\NC(=O)CN1CCN(S(=O)(=O)c2ccc(C)cc2)CC1)c1ccncc1`, for which the “hERG current change (%, negative = inhibition) at 10uM” value is on record as -77.1%. Turning to `O=C(Cc1ccccc1)NNS(=O)(=O)c1ccccc1[N+](=O)[O-]`, the “hERG current change (%, negative = inhibition) at 10uM” value is recorded as 15.5%. Turning to `COc1cc(Cc2cc(N)nc(N)n2)cc(OC)c1OC`, the “hERG current change (%, negative = inhibition) at 10uM” value is 18.4%. On to `Cc1ccc(NC2=CC(=O)OC(C)C2)cc1` (stereo not shown), for which the “hERG current change (%, negative = inhibition) at 10uM” value came to 10.3%. Consider `CCOc1ccc(S(=O)(=O)N2CCCCC2)cc1NC(=O)c1c(CC)noc1C`, for which the “hERG current change (%, negative = inhibition) at 10uM” value stood at 11.8%.

As to `O=C(CCCN1C(=O)CCC1=O)Nc1cccc(C(F)(F)F)c1`, the “hERG current change (%, negative = inhibition) at 10uM” value is -0.677%. The same measure for `OCc1n[nH]c(CO)n1`: -26.6%. In the case of `O=C(O)c1cnn2c1NC(c1ccc(F)cc1)CC2C(F)(F)F` (stereo not shown) it was -0.771%; in that of `COC(=O)c1cc(=O)n(CCc2ccc(OC)cc2)c(=Nc2ccc(F)c(Cl)c2)s1`, -1.4%.

For `CCOP(=O)(OCC)C(NC(=O)c1ccccc1)=C(Cl)Cl`, the “hERG current change (%, negative = inhibition) at 10uM” value is listed as -4.88%. `COc1cccc(OC)c1C1=NC(C)(C)CO1`: the “hERG current change (%, negative = inhibition) at 10uM” value is 17.8%. The same measure for `O=C(COC(=O)CNC(=O)c1ccc(Cl)cc1)Nc1ncc(C(F)(F)F)cc1Cl`: -31.8%; for `O=C(Nc1nc2ccccc2[nH]1)c1cc2ccccc2o1`: 3.98%; for `O=[N+]([O-])c1ccc(CN2CCSCC2)cc1`: 15.5%.

For `Cn1c(=O)n(Cc2ccccc2Br)c2ccccc21`, the “hERG current change (%, negative = inhibition) at 10uM” value is -10.3%. In the case of `COc1ccc(CCC(C)NCC(C)c2ccccc2)cc1` (stereo not shown) it was -48.3%.

Take `Br.Cc1nnc2n1N=C(c1ccccc1)CS2`: the “hERG current change (%, negative = inhibition) at 10uM” value is listed as 7.6%. The same measure for `O=C(Nc1ccc2ncccc2c1)Nc1ccc2ncccc2c1`: 17.4%. The same measure for `O=C1/C(=C\c2cccnc2)CN(Cc2ccccc2)C/C1=C\c1cccnc1`: -29.4%; for `O=C(NC1CC1)C1=C[C@@H](c2ccc(Br)cc2)C[C@@H](OCc2ccc(CO)cc2)O1`: -56.4%.

As to `COc1ccc(S(=O)(=O)N(Cc2cccnc2)Cc2cc3ccccc3[nH]c2=O)cc1`, the “hERG current change (%, negative = inhibition) at 10uM” value is listed as -18.6%.

As for `C=CCN(c1ccccc1)S(=O)(=O)c1cccc(C(=O)Nc2ccncc2)c1`, the “hERG current change (%, negative = inhibition) at 10uM” value is -36.1%. As to `Cc1ccccc1C(=O)NCCCn1ccnc1`, the “hERG current change (%, negative = inhibition) at 10uM” value amounted to 18.3%. Turning to `CC(C)(C)c1ccc(/C=N/Nc2cccc(C(=O)O)c2)cc1`, the “hERG current change (%, negative = inhibition) at 10uM” value is 34%. In the case of `CN(C)C(=O)N1CCNCC1.Cl` it was 12.8%; in that of `CC1CC(=O)Nc2ccccc2N1C(=O)Nc1ccc(F)cc1` (stereo not shown), 12.1%; in that of `Cc1cc(C)n(-c2cc(N3CCN(S(=O)(=O)c4ccc5ccccc5c4)CC3)ccc2[N+](=O)[O-])n1`, -1.13%.

Consider `COCCN(C(=O)c1ccco1)c1nnc(-c2ccc(OC)c(OC)c2)s1`, for which the “hERG current change (%, negative = inhibition) at 10uM” value is recorded as -0.243%.

Regarding `CCc1ccc(C(=O)c2cncc(Br)c2)cc1`, the “hERG current change (%, negative = inhibition) at 10uM” value is recorded as -18.3%.

`Cn1cc2cc(NC(N)=S)ccc2n1`: the “hERG current change (%, negative = inhibition) at 10uM” value is 5.63%. In the case of `S=C1NC2=C(CCC/C2=C\c2ccccc2)C(c2ccccc2)N1` (stereo not shown) it was 15.4%.

As to `COc1ccc(S(=O)(=O)Oc2ccc3ccccc3c2)cc1`, the “hERG current change (%, negative = inhibition) at 10uM” value is -5.54%. For `O=C(Nc1ccccc1C(F)(F)F)N1CCC(N2CCCCC2)CC1`, the “hERG current change (%, negative = inhibition) at 10uM” value is recorded as 1.05%.

As to `COc1ccc(NC(=O)N2CCN(c3ccc([N+](=O)[O-])cc3)CC2)cc1OC`, the “hERG current change (%, negative = inhibition) at 10uM” value is reported as -73.2%. With `Cc1nn(C(C)C(=O)Nc2ccc3c(c2)OCO3)c(C)c1[N+](=O)[O-]` (stereo not shown), the “hERG current change (%, negative = inhibition) at 10uM” value is given as -20.6%. In the case of `Cc1ccc(Cl)c(OCC(=O)Nc2cccnc2)c1` it was 8.07%; in that of `Cc1cc(CC(C)C)n(-c2nc3ccccc3c(=O)n2OCC(N)=O)n1`, -6.58%; in that of `COc1cc(/C=C/C(=O)O)cc(S(=O)(=O)NCC2CCCO2)c1OC` (stereo not shown), 5.22%. With `COc1ccc(NC(=O)COC(=O)CCCOc2ccc(Cl)cc2Cl)cc1Cl`, the “hERG current change (%, negative = inhibition) at 10uM” value is recorded as 14.3%.

As to `CC(C)=CCN1CCN(CCC2=C(C)CCCC2(C)C)CC1CCO` (stereo not shown), the “hERG current change (%, negative = inhibition) at 10uM” value was -47.4%.

On to `COc1cccc(-n2c(Cc3cc(=O)[nH]c(=O)[nH]3)nnc2SCC(=O)NC2CCCC2)c1`, for which the “hERG current change (%, negative = inhibition) at 10uM” value was 8.82%. Consider `O=C(c1ccncc1)N1CCN(S(=O)(=O)c2cc(C(F)(F)F)cc(C(F)(F)F)c2)CC1`, for which the “hERG current change (%, negative = inhibition) at 10uM” value was -21.6%. In the case of `CN(C)c1cc(N/N=C/c2ccccc2C(F)(F)F)nc(N(C)C)n1`, the “hERG current change (%, negative = inhibition) at 10uM” value stood at 2.18%.

`COc1cc(NC(=O)COC(=O)CO/N=C(\C)c2ccc3c(c2)OCO3)cc(OC)c1`: the “hERG current change (%, negative = inhibition) at 10uM” value is on record as 14.6%. The same measure for `O=C(NCc1ccncc1)c1nc(-c2ccc(C(F)(F)F)cc2)no1`: -23%; for `C=CCn1cc(C(=O)OC)c(=O)c2cc(S(=O)(=O)N3CCC(C)CC3)ccc21`: -39%. For `CCCC(=O)C1=C(O)C(c2cccc(Oc3ccccc3)c2)CCC1=O` (stereo not shown), the “hERG current change (%, negative = inhibition) at 10uM” value is on record as -7.79%. Take `CC(=O)Nc1ccc(OC(=O)N2CCCCC2)cc1`: the “hERG current change (%, negative = inhibition) at 10uM” value is -1.39%. In the case of `O=C(Nc1ccc(-c2nnn(CC(=O)N3CCN(C(=O)c4ccco4)CC3)n2)cc1)c1ccc(F)cc1` it was 3.09%. The same measure for `Cc1cccc(CSC2=NCCN2C(=O)c2ccc(Br)o2)c1`: -4.26%. The same measure for `COC(=O)C(C)(C)NC(=O)c1cccs1`: 5.47%. On to `CC1CCC(N2CCN(S(C)(=O)=O)CC2)CC1.O=C(O)C(=O)O` (stereo not shown), for which the “hERG current change (%, negative = inhibition) at 10uM” value was determined as 13.2%. In the case of `CCCCCCCCC(=O)Nc1cc(C)ccc1OC`, the “hERG current change (%, negative = inhibition) at 10uM” value stood at 1.01%. The same measure for `COc1ccc(NC(=O)COC(=O)CNC(=O)c2cc(OC)c(OC)c(OC)c2)cc1`: -13%; for `COc1ccccc1NC(=O)COC(=O)c1cc(C)nc2ccccc12`: 10.6%; for `NC(=O)C1CCCN(CCc2ccccc2)C1` (stereo not shown): 3.16%.

`CS(=O)(=O)O.S=C=Nc1cccc(C2(N3CCCCC3)CCCCC2)c1`: the “hERG current change (%, negative = inhibition) at 10uM” value is given as -6.4%. As for `CCc1ccc(NS(=O)(=O)c2ccc3c(c2)CCN3C(=O)CCC(=O)O)cc1`, the “hERG current change (%, negative = inhibition) at 10uM” value is on record as -7.19%. In the case of `CCCn1nnnc1NCc1cccc(OC)c1OCC`, the “hERG current change (%, negative = inhibition) at 10uM” value was 1.32%. In the case of `Cn1c(=O)[nH]c(=O)c2c1nc(SCCN1CCOCC1)n2CCCc1ccccc1` it was -46.9%; in that of `Cc1ccc(CNC(=O)C2CNc3cc(C)ccc3O2)cc1` (stereo not shown), -9.14%; in that of `CC(C)C[C@H](NC(=O)c1[nH]cnc1C(=O)N[C@@H](C)C(=O)OC(C)(C)C)C(=O)OCc1ccccc1`, 6.75%.
